Hit rate of the full screen: of about 45,000 compounds, about 200 (0.44%) were called active. Another 7% or so got no clear call; they are omitted. The call rests on the fitted dose curve; in most records, active means well fitted activation curve with a large enough effect; inconclusive means small, poorly fitted or top-dose-only effect; inactive means no such curve, though single readings can be large or run the other way. Some of the results follow.

This assay in a line: qHTS of TDP-43 Inhibitors: NCGC Sytravon Library Screen. Further: 0% is about no effect; nearly all actives have a fitted effect of over 55% in size. The note with it: yeast TDP-43 toxicity rescue, BacTiter-Glo growth, 24 h; series mostly up to 46.1 µM; growth rescue (activation): at the top concentration. The source says:
The goal of this project is to identify new chemical probes capable of reversing the toxicity associated with TDP-43 which is associated with frontotemporal lobar degeneration and amyotrophic lateral sclerosis. These compounds will provide a complementary approach to deciphering the tangled mechanisms of toxicity and protection that we have uncovered through genome-wide genetic screens and are beginning to uncover in a large-scale proteomics analysis with mass spectroscopy. To this end, a miniaturized assay was developed to be screened against the Molecular Libraries Small Molecule Repository (MLSMR) to discover TDP-43 inhibitors. Please note that in the set-up this yeast-based assay compounds that inhibit as TDP-43, have a read-out as activators. NIH Chemical Genomics Center [NCGC] NIH Molecular Libraries Probe Centers Network [MLPCN] Assay Submitter (PI): Susan Lindquist, Whitehead Institute/MIT MLPCN Grant: R21 NS060957
Dispense 2.5 microL yeast galactose medium per 1536-well plate, pin compound, dispense 2.5 microL TDP-43 expressing yeast in galactose medium at OD600=0.02 (pregrown in raffinose medium to mid-log phase) per well, incubate for 24 hr at 30 deg C, and cell growth will be measured using 5 microL of Bactiter/Glo reagent to entire plate and read using Luminescence Protocol in ViewLux.
On the technique in general: qHTS replaces the single test concentration by a dilution series.
As to `Cc1ccn2c(CNC(C)CCn3cccn3)c(C(=O)N3CCCCCC3)nc2c1` (centres undefined), the “growth rescue (activation)” value was inactive: 5.45%. Regarding `O=c1c2c(nc3c(-c4ccccc4)c[nH]n13)CCCC2`, the “growth rescue (activation)” value was inactive: -2.33%. Turning to `CCc1nnc(NC(=O)COc2ccc3c(c2)OCO3)s1`, the “growth rescue (activation)” value was inactive: 2.1%.

Regarding `Cc1cc(NC(=O)COc2ncnc3sc(C)c(C)c23)no1`, the “growth rescue (activation)” value is inactive: 6.67%. As to `O=S(=O)(Cc1cc(-c2ccccc2Cl)no1)c1ccccc1`, the “growth rescue (activation)” value is inactive: 29%. On to `NS(=O)(=O)c1ccc(NC(=O)CCCCC(=O)Nc2ccc(S(N)(=O)=O)cc2)cc1`, for which the “growth rescue (activation)” value was inactive: 12%. As for `COC(=O)c1cc(C#N)c(N2CCOCC2)nc1C`, the “growth rescue (activation)” value was inactive: 3.35%. As to `O=C(Nc1ccccn1)c1ccc2c(c1)OCO2`, the “growth rescue (activation)” value is inactive: 15.7%. Consider `CC(C)OC(=O)c1ccc(S(N)(=O)=O)o1`, for which the “growth rescue (activation)” value was inactive: 3.77%. With `CCc1cc(CNC(=O)C2CCC(=O)N(CCc3ccc(OC)cc3)C2)on1` (centres undefined) the figure was inactive: 5.42%; with `CCOc1ccccc1CN1CCNC(=O)C1CC(=O)NCc1nc(C)cs1` (centres undefined), inactive: 3.96%. With `CC(C)c1ccc(NC(=S)NC2CCCCCC2)cc1` the figure was inactive: 11.5%; with `COc1cccc(CN2CC(C(=O)NCCCc3ccncc3)CCC2=O)c1` (centres undefined), inactive: 20.3%. With `O=C1N(c2ccc(Cl)cc2)C(c2ccccc2)N2CCCN12` (centres undefined) the figure was inactive: 12.1%; with `C=CCC(C=C)[N+]1(CC(=O)OC)CCCCC1` (centres undefined), inactive: -7.64%; with `COc1ccc(-n2c(C)cc(-c3cn4cccc(C)c4n3)c2C)cc1`, inactive: -4.37%. For the molecule `CCOC(=O)C1CCN(C(=O)CNC(=O)c2nn(-c3ccc(OC)c(OC)c3)c(=O)c3ccccc23)CC1`, the “growth rescue (activation)” value is inactive: 21.3%. Turning to `CSCC(C)N1CCC(CO)(CCc2ccccc2)CC1` (centres undefined), the “growth rescue (activation)” value is inactive: -3.58%. Turning to `O=C(NC12CC3CC(CC(C3)C1)C2)N1CCN(C(=O)c2ccco2)CC1`, the “growth rescue (activation)” value is inactive: -2.79%.

For `Cc1c(Cl)cnc(NC(=O)COC(=O)c2ccc3ncsc3c2)c1Cl`, the “growth rescue (activation)” value was inactive: -0.649%.

Consider `COc1ccc2c(c1)C(=O)N(Cc1ccccc1)C(=O)C2(C)C`, for which the “growth rescue (activation)” value was inactive: 7.88%.

On to `Cc1cc(C)c2nc3nc(C)c(C)cc3c(N)c2c1`, for which the “growth rescue (activation)” value was inactive: 1.92%. Consider `CCc1ccc(OC2(C)CCN(Cc3ccc4c(c3)OCCO4)C2)cc1` (centres undefined), for which the “growth rescue (activation)” value is inactive: -0.818%.

With `O=c1[nH]c2c(oc3ccccc32)c(=O)n1Cc1ccccc1`, the “growth rescue (activation)” value was inactive: -16.2%. With `N=c1n(CCN2CCCCC2)c2ccccc2n1CC(=O)c1cccs1` the figure was inactive: 25.1%.

As for `FC(F)C(F)(F)Oc1cccc(Nc2nccn3c(-c4ccc5ccccc5c4)cnc23)c1`, the “growth rescue (activation)” value is inactive: 11.1%. Turning to `c1ccc(Cc2nnc3n2N=C(c2ccccc2)CS3)cc1`, the “growth rescue (activation)” value is inactive: 7.66%. Turning to `CC(=O)c1ccc(N2CCN(C(=O)c3nn(Cc4ccccc4)c(=O)c4ccccc34)CC2)cc1`, the “growth rescue (activation)” value is inactive: 21.1%.

As for `Cc1c(NC(=O)c2ccc3c(c2)C(=O)N(Cc2ccco2)C3=O)cccc1C(=O)O`, the “growth rescue (activation)” value was inactive: -10.5%. With `Cc1cc2c(=O)n(C)c(SCC(=O)NC3CCCC3)nc2s1` the figure was inactive: 2.95%; with `O=C(O)c1cccc(S(=O)(=O)N2CCN(Cc3ccc4c(c3)OCO4)CC2)c1`, inactive: -5.95%; with `COc1ccccc1C(=O)OCC(=O)NC1CCCC1`, inactive: 8.87%. On to `CC(=O)C1=C(O)C(=O)N(CCC(=O)O)C1c1ccccc1[N+](=O)[O-]` (centres undefined), for which the “growth rescue (activation)” value is inactive: 10.7%. As to `CCN1C(=O)[C@@H]2C(C(=O)c3cnccn3)=NN[C@@H]2C1=O`, the “growth rescue (activation)” value was inactive: -22%.

On to `CC(C)[C@@H](C(=O)OCC(=O)c1ccc2c(c1)NC(=O)CO2)N1C(=O)c2ccccc2C1=O`, for which the “growth rescue (activation)” value is inactive: 11.8%. The result for `COc1cc(/C=N/n2c(C)n[nH]c2=S)ccc1OCc1ccc(F)cc1` reads inactive: 18.4%; that for `N#C/C(=C\c1cn(Cc2ccccc2)c2ccccc12)C(=O)NCc1ccco1`, inactive: -1.09%; that for `CCOc1ccc(N(CC(=O)Nc2c(C)cccc2C)S(=O)(=O)c2c(C)[nH]c(=O)[nH]c2=O)cc1`, inactive: -45.2%. Regarding `O=C(NCCc1cccc(Cl)c1)C1CCC(=O)N(Cc2ccc(Cl)cc2)C1` (centres undefined), the “growth rescue (activation)” value was inactive: 8.29%. Regarding `CC(C)c1ccc(OCC(=O)Nc2ccncc2)cc1`, the “growth rescue (activation)” value is inactive: -6.8%. Turning to `Nc1cc(-c2ccc(Br)cc2)[nH]n1`, the “growth rescue (activation)” value was inactive: 12.3%.

In the case of `Cc1ccc(NC(=O)C(=O)C2C(=O)Nc3ccccc32)cc1` (centres undefined), the “growth rescue (activation)” value was inactive: -39.2%. With `CC(CNC(=O)c1cncc(O)c1)NC(=O)c1cncc(O)c1` (centres undefined) the figure was inactive: -18%; with `Cc1c(N=C2Nc3cccc4cccc2c34)c(=O)n(-c2ccccc2)n1C`, inactive: 0.508%; with `CSc1ccc(CN2CCC2(C)C(=O)NC2CCN(Cc3ccccc3)CC2)cc1` (centres undefined), inactive: 11.8%.

Regarding `CC1CCN(S(=O)(=O)c2cccc(C(=O)NNC(=O)c3ccco3)c2)CC1`, the “growth rescue (activation)” value is inactive: -5.08%. For `Cc1cc(C)n2nc(C(=O)N3CCN(Cc4ccc5c(c4)OCO5)CC3)nc2n1`, the “growth rescue (activation)” value was inactive: 8.78%. With `O=C1CC(N2CCSCC2)C(=O)N1c1cccc(Br)c1` (centres undefined) the figure was inactive: -10.1%; with `O=C(CCCN1C(=O)/C(=C\c2ccco2)SC1=S)Nc1ccc(O)cc1C(=O)O`, inactive: -3.41%. Take `Cc1cc(C)cc(C(O)c2ncc(-c3ccccc3C)[nH]2)c1` (centres undefined): the “growth rescue (activation)” value is inactive: 21.2%.

On to `CN(C)C(CNC(=O)c1cc(S(=O)(=O)N(C)c2ccccc2)ccc1Cl)c1ccccc1` (centres undefined), for which the “growth rescue (activation)” value is inactive: -0.446%. On to `Cc1nn(C(=O)c2ccco2)c(C)c1Br`, for which the “growth rescue (activation)” value is inactive: 0.813%. With `COc1cc(/C=C2\CCCc3c2nc2ccccc2c3C(=O)O)cc(Br)c1O` the figure was inactive: -3.21%; with `Cc1cc2c(cc1S(=O)(=O)N1CCOCC1)NC(=O)CO2`, inactive: 3.62%.

For the origin of these results see PubChem BioAssay AID1347073 (National Center for Advancing Translational Sciences (NCATS), 2019).
